The values below come from patent US20240248079A1, “IMPROVED UnaG FLUORESCENT PROTEIN FOR BiFC ASSAYS” (THE REGENTS OF THE UNIVERSITY OF CALIFORNIA, priority 2021, published 2024).

Holding throughout (format): cell-based
The target in test [1] is T1, PPI between MYCN and AURKA (Homo sapiens, UniProt O14965).
T1 construct: expressed in transfected cells
T1 sequence (O14965 122-403): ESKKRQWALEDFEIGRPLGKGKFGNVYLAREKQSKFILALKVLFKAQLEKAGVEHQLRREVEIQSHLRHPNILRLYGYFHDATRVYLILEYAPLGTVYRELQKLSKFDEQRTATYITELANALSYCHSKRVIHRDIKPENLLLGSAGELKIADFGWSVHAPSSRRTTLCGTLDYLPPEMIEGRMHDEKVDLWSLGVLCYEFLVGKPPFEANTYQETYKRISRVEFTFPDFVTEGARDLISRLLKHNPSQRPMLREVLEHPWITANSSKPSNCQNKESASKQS
The test is described as follows: SURF reporter of MYCN (1-137) and AURKA (122-403): verification, high throughput screening, time course. The note with it: cSURF-MYCN (1-137), nSURF-AURKA (122-403). The method, then: To identify clinical drugs that can inhibit the interaction between YAP1 and TEAD, a SURF-based reporter for imaging this PPI was developed. […] Next, a high throughput screening of 1622 FDA-approved drugs (1 μM final concentration) was carried out. […] Here, ten fields-of-view (FOV) were imaged per well (i.e. per drug). The images were analyzed using ImageJ in an automated batch processing to calculate: 1) the SURF fluorescence per one FOV; 2) the co-expressed mCherry fluorescence per FOV; 3) normalized SURF fluorescence by mCherry. Then, we calculated: 1) the fold change of normalized SURF fluorescence (averaged by 10 FOV) for each drug (vs buffer); and 2) the p-value based on 10 FOV for each drug (vs buffer).
To identify clinical drugs that can inhibit the interaction between MYCN and AURKA, a SURF-based reporter was developed for imaging this PPI (FIG. 5).
To examine how fast the identified drugs inhibit the PPI, the top five drugs were selected for a time course assay.

Test [2] has as its system neuroblastoma cell lines (Kelly, CHP134, SKNAS). Put plainly: WST-1 cell proliferation assay. The note with it: WST-1 assay. Background: Tetrazolium assays rely on reduction of a dye to a coloured formazan, in cell work by metabolically active cells.
The subject of test [3] is MYCN protein in MYCN-amplified neuroblastoma cells (Kelly cells). Put plainly: MYCN protein levels by western blot. On the procedure: Second, SURF assays for KRas^G12V and Raf1; YAP and TEAD were also developed.
To examine whether the identified drugs block MYCN activity in cancer cells, MYCN protein levels were assessed by western blot.
(In general: A western blot detects proteins with antibodies after separation by electrophoresis.)

Structures are written as SMILES.

In the case of `O=C(Nc1ccc(Nc2nccc(Nc3cc(C4CCCC4)[nH]n3)n2)cc1)Nc1cccc(C(F)(F)F)c1` [CD532], the “effect on PPI / SURF fluorescence” value in test [1] is given as “detected dissociation of these two proteins”. Moreover, the anti-proliferation effect result in test [2] was “showed anti-proliferation effects”. Turning to `CC(=O)O[C@H]1[C@H]2O[C@]23[C@@H]2CC[C@]4(O)C[C@@H](O)CC[C@]4(C)[C@H]2CC[C@]3(C)[C@H]1c1ccc(=O)oc1` [cinobufotalin], in test [2], the anti-proliferation effect entry is “stronger effect on anti-proliferation than cabozantinib”. In the case of `C#CCC(Cc1cnc2nc(N)nc(N)c2n1)c1ccc(C(=O)N[C@@H](CCC(=O)O)C(=O)O)cc1` (stereo partly shown) [pralatrexate], the “MYCN degradation (MYCN protein level)” value in test [3] is “do not degrade MYCN”.
